Laboratory results as given in PubChem BioAssay AID1963576 (National Center for Advancing Translational Sciences (NCATS), 2024).
In all, about 46,000 compounds went through this assay and about 60 (0.1%) were called active. Not shown: some 3% with an inconclusive outcome. The call rests on the fitted dose curve; in most records, active means well fitted inhibition curve with a large enough effect; inconclusive means small, poorly fitted or top-dose-only effect; inactive means no such curve, though single readings can be large or run the other way. This is one part of the list.

test: Primary qHTS assay for Inhibitors of ovarian cancer metastasis using an organotypic tumor microenvironment (TME) model.; further: nearly all actives have a fitted effect of over 65% in size;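 on activity change, negative = inhibition: plate controls were DMSO wells for no effect and tomatine positive control wells for full effect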; settings: SKOV3ip1-GFP adhesion/invasion on 3D omental model, fluorescence; series mostly up to 45.8 µM; activity change, negative = inhibition: at the top concentration
Summary of the method: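 Primary human omental fibroblast/mesothelial 3D culture pre-formed 48 h. SKOV3ip1-GFP cells added with compounds (0.36-46 umol/L), incubated 2 h RT/16 h 37 C, fixed; GFP cells quantified at 488/509 nm.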

Structure (SMILES)	outcome	activity change, negative = inhibition
Cc1ccc2nc(CN3CCN(C(=O)Nc4ccc(F)cc4)CC3)oc2c1	inactive	
COc1ccc(C2C(=O)N(C3CCCCC3)CC(=O)N2CCc2ccc(C)cc2)cc1OC (stereo not given)	inactive	
CSc1nc(NCCOC(C)=O)c(C#N)c(-c2ccc(C(C)(C)C)cc2)n1		inactive: -7.71%
CCOC(=O)c1c(NC(=O)c2cc(-c3ccccc3OC)on2)sc(C)c1C		inactive: 2.43%
O=C(COc1ccccc1F)Nc1ccc2nc(SCC(=O)N3CCc4ccccc43)sc2c1		inactive: 2.55%
CCc1ccccc1NC(=O)Cn1nc2c3cc(F)ccc3n(Cc3cccc(C)c3)cc-2c1=O		inactive: 1.85%
COc1ccc(NC(=O)CCc2c(C)nc3c(c2C)c(=O)n(C)c(=O)n3C)c(OC)c1		inactive: -0.395%
COc1ccccc1CNC(=O)C1(c2cccs2)CCOCC1	inactive	
COc1ccc(-c2nc3nc(C)cc(C)n3c2Nc2c(C)cccc2C)cc1		inactive: 17.9%
Cc1cc(C)c2nc(N(Cc3cccnc3)C(=O)CCS(=O)(=O)c3ccccc3)sc2c1		inactive: -9.67%
Cc1cc(NC(=O)C2CCN(S(=O)(=O)c3c(C)noc3C)CC2)ccc1Br		inactive: 6.46%
CC1=C(C(=O)Nc2cccnc2)C(c2ccc(F)cc2)n2nc(-c3cccc(C)c3)nc2N1 (stereo not given)		inactive: -10.6%
CCc1ccc2oc(C(=O)NCC(c3ccc(OC)cc3)N3CCCCC3)c(C)c2c1 (stereo not given)		inactive: 0.555%
Cc1cccc(-n2ccnc2SCC(=O)Nc2cccc3ccccc23)c1	inactive	
N#Cc1c[nH]n2c(NC3CCCCC3)c(-c3ccc(F)cc3)nc12		inactive: -5.57%
CCc1ccc(OCC(=O)Nc2ccc3c(c2)c2ccccc2n3CC)cc1		inactive: 13.3%
O=C(COc1ccccc1Cl)Nc1ccc(OCc2cc(=O)n3ccsc3n2)cc1		inactive: -6.77%
Oc1ccccc1-c1nc(-c2cccs2)c(-c2cccs2)[nH]1	inactive	
Cc1cc(C)cc(OCCSc2nc3ccc(NC(=O)c4ccc5c(c4)OCO5)cc3s2)c1		inactive: -3.3%
Cc1ccc(C)c(N2CCN(C(=O)c3ccc(-c4nc(COc5ccccc5)c(C)o4)cc3)CC2)c1		inactive: 1.04%
CCOc1ccc(NC(=O)c2ccc3[nH]c(C)cc(=O)c3c2)cc1		inactive: 16.8%
Cc1ccccc1C(=O)Nc1cccc(OCc2cc(=O)n3c4c(sc3n2)CCCC4)c1		inactive: -4.08%
CC1CCN(S(=O)(=O)c2ccc3c(c2)N(CC(=O)NCCN(C)C)C(=O)CO3)CC1		inactive: -2.47%
Cc1ccc(C)c(CNS(=O)(=O)c2ccc3c(c2)C(C)(C)C(=O)N3C)c1		inactive: -14.8%

Structure (SMILES)	outcome	activity change, negative = inhibition
COc1ccc(NC(=O)Cn2cc(S(=O)(=O)N3CCC(C)CC3)c3ccccc3c2=O)cc1Cl	inactive	
COc1ccc2c(c1)c1c(c(=O)n(-c3ccc(C)cc3)c(=O)n1CC(=O)c1ccc(Cl)cc1)n2C	inactive	
O=C(CCCCn1c(=O)[nH]c2ccsc2c1=O)N1CCN(c2cccc(C(F)(F)F)c2)CC1		inactive: 26.5%
CC(=O)N1CCc2c(sc3c2c(=O)n(-c2cccc(Cl)c2C)c(=O)n3Cc2ccccc2C)C1		inactive: 9.24%
Cc1ccc2c(c1)cc1c(=O)n(CC(=O)N(C)c3ccccc3)nc(C)n12		inactive: 93.4%
CCOC(=O)c1c(S(=O)(=O)N2CCCC(C(=O)NCc3ccc(F)cc3)C2)c(C)n(CC)c1C (stereo not given)		inactive: -16%
COc1ccc(CN(Cc2ccco2)C(=O)COc2ccc(Cl)cc2C)cc1	inactive	
COc1cccc(-c2nnc(SCC(=O)N3CCCCC3)o2)c1		inactive: 10.2%
OC1CCC(Nc2ncc3nc(Nc4c(F)cc(F)cc4F)n([C@@H]4CCOC4)c3n2)CC1 (stereo not given in full)		inactive: 33.4%
CCOC(=O)c1cccc(NC(=O)c2ccc3c(c2)nnn3CC)c1		inactive: 2.11%
O=C(OCc1cc(=O)n2nc(-c3cccs3)sc2n1)c1cccc(Cl)c1		inactive: -5.73%
COc1ccc(CNC(=O)C2CCCN(S(=O)(=O)N(C)c3ccc(F)cc3)C2)cc1OC (stereo not given)		inactive: 13.8%
Cc1ccc(C(C(=O)NC2CCCCC2)N(C)Cc2ccccc2)cc1 (stereo not given)		inactive: -17.3%
CCOC(=O)c1ccccc1NC(=O)Cn1nnc2sc3c(c2c1=O)CCCC3		inactive: 2.39%
Cc1ccc(NC(=O)Cn2c(=O)c(C(F)(F)F)nc3ccccc32)cc1C	inactive	
CCOc1ccc(NC(=O)c2oc3ccccc3c2NC(=O)C2CCCCC2)cc1		inactive: 11.9%
Cc1cccc(C)c1NC(=O)c1nc(S(C)(=O)=O)ncc1N(Cc1ccc(C(C)(C)C)cc1)Cc1ccco1		inactive: -2.9%
CCOC(=O)c1ccccc1Nc1nc2ccc(C)cc2n2nnnc12		inactive: -16%
Cn1cc(-c2cc3n(n2)CCC(=O)N3CCCC(=O)NCc2ccc(F)cc2)c2ccccc21		inactive: -11.5%
CCc1cccc(CC)c1NC(=O)CCS(=O)(=O)c1ccc(Br)s1		inactive: -26.5%
Cc1oc2c(c1C(=O)Nc1ccc(F)c(F)c1)C1=NCCN1C=N2	inactive	
CC(C)CNC(=O)N1CCN(S(=O)(=O)c2ccc3c(ccn3C)c2)CC1		inactive: -11.2%
Cc1ccc(NC(=O)CSc2nc3nc(C)c(Cc4ccccc4)c(C)n3n2)cc1		inactive: 8%
CCN1CCN(Cc2c(O)ccc3oc(C)c(C(=O)Nc4ccc(OC)cc4)c23)CC1		inactive: -7.92%

Structure (SMILES)	outcome	activity change, negative = inhibition
COc1ccc(-c2cc(C(F)(F)F)n3nc(C(=O)Nc4cc(C(F)(F)F)ccc4Cl)cc3n2)cc1OC		inactive: -3.79%
COc1ccc(Cn2ccnc2SCC(=O)Nc2ccc3c(c2)OCO3)cc1		inactive: 0.241%
Cc1ccc2oc3c(c(=O)c2c1)C(c1ccccc1F)N(c1ccccn1)C3=O (stereo not given)		inactive: 8.91%
Cc1cccc(C(=O)NCC(c2cccs2)S(=O)(=O)c2cccs2)c1 (stereo not given)		inactive: 4.39%
COc1ccc(C(=O)Nc2ccc(NC(=O)c3cccs3)cc2)cc1OC		inactive: -14.5%
COc1ccccc1CCNC(=O)C(=O)NCC(c1ccco1)S(=O)(=O)c1cccs1 (stereo not given)		inactive: 29.5%
Cc1ccc(NC(=O)N2CC3CCCN3c3ccccc32)cc1C (stereo not given)		inactive: -19.5%
CN(C)c1ccc(CN(Cc2ccco2)C(=O)COc2ccc(F)cc2)cc1		inactive: -5.78%
O=C(NCC(c1ccc2c(c1)OCO2)N1CCN(c2ccccc2)CC1)C(=O)Nc1ccc(F)cc1 (stereo not given)		inactive: -4.08%
CCOc1ccc(C(=O)c2cn(CC(=O)Nc3ccc(OC)cc3)c3cc4c(cc3c2=O)OCO4)cc1		inactive: -0.308%
CCOC(=O)c1ccc(CN(Cc2ccc(C)cc2)S(=O)(=O)c2ccc(F)c(C(=O)Nc3ccc(C)c(F)c3)c2)cc1		inactive: 6.4%
Cc1ccc(S(=O)(=O)NC2(C(F)(F)F)NC(=O)N(c3ccc(F)cc3)C2=O)cc1 (stereo not given)	inactive	
Cc1ccc(-c2nc3n(n2)C(c2ccccc2Cl)C=C(c2ccc(Cl)cc2)N3)cc1 (stereo not given)		inactive: 0.459%
CC1CCN(S(=O)(=O)c2ccc3c(c2)CCN3C(=O)Nc2cccc(Br)c2)CC1	inactive	
C=C[C@@H]1CN2CCC1C[C@@H]2C(O)c1ccnc2ccc(OC)cc12 (stereo not given in full)		inactive: -7.9%
COC(=O)c1sccc1S(=O)(=O)N(CC(=O)NCc1ccc(C)cc1)c1ccccc1		inactive: 0.314%
N#Cc1c[nH]n2c(NC3CCCC3)c(-c3cccc(Br)c3)nc12		inactive: 0.533%
CCS(=O)(=O)N1CC(=O)N(c2cccc(Cl)c2)C(C)(C(=O)NC2CCCCCC2)C1 (stereo not given)		inactive: -1.73%
CC(C)CCn1c(=O)c2cccnc2n(CC(=O)Nc2ccccc2)c1=O		inactive: -0.432%
Cc1oc(-c2ccc(C(=O)NCCC(C)C)cc2)nc1CS(=O)(=O)c1ccccc1		inactive: -7.97%
CCOC(=O)c1c(C)[nH]c(C)c1S(=O)(=O)N1CCCC(C(=O)Nc2ncccc2C)C1 (stereo not given)	inactive	
CCCC(=O)N1CCc2cc(OC)c(OC)cc2C1COc1ccccc1OC (stereo not given)		inactive: 4.42%
Cc1ccn2c(NC(=O)c3cccc(Cl)c3)c(-c3ccccc3)nc2c1		inactive: 48%
CCOCCCn1c(=N)c(C(=O)NC(C)c2ccccc2)cc2c(=O)n3cc(C)ccc3nc21 (stereo not given)		inactive: -0.707%

Structure (SMILES)	outcome	activity change, negative = inhibition
Cc1cccc(C)c1NC(=O)Cn1c(=O)n(Cc2ccc(C(=O)NCc3ccco3)cc2)c(=O)c2sccc21		inactive: -23.3%
CCOC(=O)Cc1cc(C(=O)Nc2ccc(Br)cc2)sc1-c1ccc(C)cc1		inactive: -11%
Cc1cccc(N2CCN(C(=O)c3ccc4nc(N5CCC(C)CC5)sc4c3)CC2)c1C		inactive: 1.64%
Cc1ccc2c(Sc3ccc(Cl)cc3)c(C(=O)NCCC(C)C)[nH]c2c1		inactive: 4.38%
Cc1c(C(=O)N(Cc2ccc(N(C)C)cc2)CC2CCCO2)oc2ccccc12 (stereo not given)		inactive: -1.1%
Cc1cc(C)cc(OCC(=O)Nc2nonc2-c2ccc(Br)cc2)c1		inactive: -2.15%
Cc1nc2sc(C)c(C)n2c(=O)c1S(=O)(=O)N1CCN(c2ccccc2F)CC1		inactive: 0.563%
COc1ccc(CN(C(=O)c2ccccc2F)C2CCS(=O)(=O)C2)cc1 (stereo not given)		inactive: -1.11%
Cc1ccc(NC(=O)CN2C(=O)c3cccnc3Sc3ccccc32)cc1C		inactive: -3.89%
COc1ccc2[nH]cc(CCNC(=O)Nc3ccccc3)c2c1		inactive: -20.8%
O=C(Nc1nc2c(F)cccc2s1)c1ccc(S(=O)(=O)N2CCOCC2)cc1	inactive	
CCc1nnc(SCc2nc(-c3ccccc3Cl)oc2C)c2cc3sc(C)cc3n12		inactive: -6.57%
COc1cc(O)c2c(c1)C1OC1C[C@H](O)[C@H](O)C(=O)C=CC[C@H](C)OC2=O (stereo not given in full)		inactive: -27.3%
CCCSc1ncc(Cl)c(C(=O)Nc2ccc(S(=O)(=O)N3CCCC(C)C3)cc2)n1 (stereo not given)		inactive: -1.69%
CCCN(Cc1cccs1)C(=O)Nc1cc(C)cc(C)c1		inactive: -7.1%
CCN(CC)C(=O)Cn1c(=O)n(-c2ccc(Cl)cc2)c(=O)c2c3c(sc21)CCCCC3	inactive	
Cc1nn(C)c2c1c(-c1ccccc1)cc(=O)n2Cc1ccc(F)cc1Cl		inactive: 4.3%
CCOc1ccc(CCNC(=O)CCn2c(=O)c3cccn3c3ccc(F)cc32)cc1OCC	inactive	
CCOc1ccc(N2CC(NC(=O)Cc3cccs3)CC2=O)cc1 (stereo not given)		inactive: -5.64%
COc1ccc(NC(=O)CC2C(=O)N(c3ccc(OC)cc3)C(=O)N2Cc2ccc(OC)c(OC)c2)cc1 (stereo not given)	inactive	
COc1ccc(-c2nc3ccccc3o2)cc1NC(=O)c1cccc2c(Cl)cccc12		inactive: -5.15%
COc1ccc2cc(-c3nc(-c4ccc(N(C)C)cc4)no3)c(=O)oc2c1		inactive: -7.66%
Cc1ccc(C)c(CSc2cn(CC(=O)N3CCCC3)c3ccccc23)c1	inactive	
